This is one part of the list. Sequences were assembled here from the parent chain. Inactive controls read about 0.05.
B1: TEV protease; numbered along this chain (parent)
chain: MGESLFKGPRDYNPISSSICHLTNESDGHTTSLYGIGFGPFIITNKHLFRRNNGTLVVQSLHGVFKVKDTTTLQQHLVDGRDMIIIRMPKDFPPFPQKLKFREPQREERICLVTTNFQTKSMSSMVSDTSCTFPSGDGIFWKHWIQTKDGQCGSPLVSTRDGFIVGIHSASNFTNTNNYFTSVPKNFMELLTNQEAQQWVSGWRLNADSVLWGGHKVFMVKPEEPFQPVKEATQL

Variants of: B1
Assay: raw area under fraction-flipped curve 0-4 h after induction (AUC4h, not background-subtracted), DNA-recorder readout of cleavage of the substrate (dimensionless); higher = more cleavage of the substrate by the protease variant
Conditions: temperature: 34 °C; time window: 0-4 h after rhamnose induction
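Note: Bxb1 expression induced with 0.2% (w/v) L-rhamnose at OD600 near 0.5, cultures sampled hourly, flipped fraction per protease–substrate barcode pair counted by paired-end Illumina sequencing.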

Variant | area with substrate ENLYDQS | area with substrate ENLYEQS | area with substrate ENLYGQS | area with substrate ENLYHQS | area with substrate ENLYKQS | area with substrate ENLYLQS | area with substrate ENLYMQS | area with substrate ENLYNQS | area with substrate ENLYPQS | area with substrate ENLYRQS | area with substrate ENLYVQS | area with substrate ENLYCQS | area with substrate ENLYIQS | area with substrate ENLYQQS | area with substrate ENLYSQS | area with substrate ENLYTQS | area with substrate ENLYWQS | area with substrate ENLYYQS
S121G | 0.0623 | 0.0856 | 0.0572 | 0.075 | 0.0235 | 0.0896 | 0.0891 | 0.077 | 0.072 | 0.0615 | 0.137 | – | – | – | – | – | – | –
T233R | – | 0.0641 | 0.0603 | 0.0643 | – | 0.0958 | – | 0.0623 | 0.091 | 0.0525 | 0.135 | 0.103 | 0.11 | 0.0617 | 0.0834 | 0.0893 | 0.0988 | 0.077
T30N | 0.0615 | 0.065 | 0.067 | 0.0719 | 0.0612 | 0.146 | – | 0.109 | 0.0675 | 0.0598 | – | – | – | 0.0616 | 0.0716 | 0.0699 | 0.0793 | –
R81M | 0.0554 | 0.0642 | 0.0633 | 0.0718 | 0.076 | 0.0969 | 0.0695 | 0.0581 | 0.0622 | 0.0691 | 0.103 | – | 0.0997 | – | 0.064 | 0.0811 | 0.0704 | 0.0551
R81K | 0.0578 | 0.0592 | 0.0425 | 0.0643 | 0.0577 | – | 0.0459 | – | 0.0589 | 0.07 | – | – | – | 0.077 | – | – | 0.0736 | –
R81F | 0.0621 | 0.0621 | 0.0602 | 0.0693 | – | – | 0.0722 | 0.0568 | 0.0537 | 0.0738 | 0.0708 | – | 0.0929 | 0.0598 | 0.0579 | – | 0.0816 | 0.0489
G150P | 0.0593 | 0.0642 | 0.0609 | 0.0588 | 0.0667 | 0.0593 | 0.0619 | 0.0624 | 0.0621 | 0.0499 | 0.0445 | – | 0.0661 | 0.0666 | 0.0551 | 0.0571 | 0.0621 | –
K100I | 0.0581 | 0.067 | 0.0618 | 0.0569 | 0.0714 | – | 0.101 | 0.0761 | – | 0.052 | – | – | 0.116 | 0.0448 | 0.0621 | – | – | –
R109E | 0.0536 | 0.05 | – | 0.0703 | 0.0519 | – | – | – | 0.0803 | – | 0.0886 | – | 0.0902 | – | 0.0906 | 0.0733 | 0.0567 | –
V229M | – | 0.0654 | 0.0416 | 0.0578 | 0.0709 | – | – | 0.0747 | 0.0714 | 0.0531 | 0.117 | 0.081 | – | 0.0674 | 0.0742 | 0.0878 | – | 0.0675
F92E | 0.0619 | 0.0698 | 0.0609 | 0.056 | 0.0601 | 0.0651 | 0.0829 | 0.0696 | 0.0799 | 0.047 | 0.0954 | – | – | 0.048 | 0.0653 | 0.0665 | 0.0716 | 0.0718
Q74C | 0.0632 | 0.0695 | 0.0523 | 0.0756 | – | – | – | 0.0597 | 0.0759 | 0.0521 | 0.105 | – | 0.0789 | 0.0594 | 0.043 | – | 0.0978 | 0.0544
T147P | 0.0617 | 0.0717 | 0.0674 | 0.0595 | 0.0415 | – | – | 0.0587 | 0.0743 | 0.0863 | 0.0356 | – | 0.0698 | 0.0611 | 0.0582 | – | 0.066 | 0.0708
R160S | 0.0552 | – | – | – | – | 0.115 | – | – | – | – | – | – | – | 0.0709 | – | – | – | –
S60P | 0.0491 | 0.055 | 0.0586 | 0.0491 | 0.0474 | – | 0.0406 | 0.0597 | – | – | – | – | 0.0446 | 0.0181 | – | – | 0.0681 | 0.0515
I145Q | 0.0648 | 0.0541 | 0.053 | 0.0683 | 0.0557 | – | 0.0672 | 0.0529 | 0.0547 | 0.067 | 0.0849 | – | 0.101 | – | – | 0.0771 | 0.0443 | 0.0526
E231Q | 0.0677 | 0.109 | 0.0651 | 0.0693 | 0.059 | – | – | – | 0.0682 | – | – | 0.0821 | – | 0.0717 | – | – | – | –
L61E | 0.068 | 0.073 | 0.0889 | 0.0737 | 0.0225 | 0.0889 | – | 0.0675 | 0.0482 | 0.048 | – | – | 0.123 | – | 0.0748 | – | 0.0882 | –
H47M | 0.0594 | 0.0588 | 0.0628 | 0.0624 | 0.0647 | – | 0.0549 | 0.0616 | 0.0518 | 0.0553 | – | – | 0.0522 | 0.0547 | 0.047 | 0.0606 | 0.047 | 0.0551
P14N | 0.0612 | 0.0661 | 0.0667 | 0.0782 | – | – | 0.0719 | 0.0775 | 0.0582 | 0.0654 | 0.0995 | – | – | 0.063 | 0.0774 | – | – | –
K142R | 0.0595 | 0.056 | 0.0624 | 0.0584 | – | 0.0844 | 0.0695 | – | 0.0571 | – | 0.0902 | – | 0.101 | – | 0.0684 | – | – | –
H62R | 0.0553 | 0.0637 | 0.0668 | 0.0672 | 0.0586 | 0.0878 | 0.0977 | 0.0682 | 0.0586 | 0.0546 | 0.136 | – | – | 0.0536 | – | – | – | –
M83K | 0.0587 | 0.007 | 0.0599 | 0.0485 | – | 0.0575 | 0.057 | 0.0534 | 0.0522 | 0.0527 | 0.057 | – | 0.146 | – | 0.0565 | – | 0.136 | –
M83C | 0.0613 | 0.0734 | 0.0505 | 0.0686 | 0.0647 | – | – | 0.0604 | 0.0714 | 0.0628 | 0.0732 | – | 0.085 | 0.0611 | – | – | – | –
M122A | 0.0609 | – | 0.0537 | 0.0467 | 0.0494 | – | 0.0865 | 0.0665 | 0.076 | 0.0508 | 0.128 | – | 0.13 | – | 0.0843 | 0.0842 | 0.0764 | 0.0641
Q105Y | 0.0642 | – | 0.0766 | 0.0586 | 0.0631 | – | 0.0705 | 0.0227 | 0.0666 | – | 0.159 | – | 0.111 | 0.0898 | 0.0427 | 0.0858 | – | 0.0496
K230I | 0.0635 | 0.0648 | 0.0667 | 0.0661 | 0.0608 | – | 0.0708 | 0.076 | – | 0.0608 | – | 0.0857 | – | 0.0687 | 0.0831 | 0.073 | 0.0816 | –
S158A | 0.053 | 0.062 | 0.0594 | 0.0559 | – | – | 0.126 | 0.0762 | 0.0765 | 0.0636 | – | – | 0.108 | – | – | 0.0877 | 0.0817 | –

Source: the supplement of paper PMC12217912
